The text below walks through data of article PMC5892938.

The list shows a part of the results. At the low end of the ranking the order means little.

The target of this experiment is GST-SBP-SLBP (stem-loop binding protein) (UniProt Q14493). Kind of experiment: targeted RNA Bind-n-Seq.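 Note: DESeq read counts versus GST-SBP nonspecific binding control pulldown.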 Particulars: RBNS binding buffer: 25 mM Tris pH 7.5, 150 mM KCl, 3 mM MgCl2, 0.1% Tween, 0.5 mg/mL BSA, 1 mM DTT; 27 nM protein, 750 pM RNA pool; temperature not stated; high values mean tight binding.
Regarding “GGUCACGUCUCAAUCAACUCAUUCCCAGGAGUUUGCUCCUGCAUUUUCAACAGCUCGCAGUCAAG”, the binding signal (log2 fold change) amounted to 0.102.

For “GGUCACGUCUCAAUCAACUCUAUCUCAGGAGUUUACUCCUGUUUUGUCAACAGCUCGCAGUCAAG”, the binding signal (log2 fold change) came out at 0.0356.

Turning to “GGUCACGUCUCAAUCAACUCUAUCUCCAGGGAAAGCCCUGGUUUAUUCAACAGCUCGCAGUCAAG”, the binding signal (log2 fold change) was -0.092.

In the case of “GGUCACGUCUCAAUCAACUCAUCUUCAGGAGUUUGCUCCUGUUUAUUCAACAGCUCGCAGUCAAG”, the binding signal (log2 fold change) amounted to 0.0984.

“GGUCACGUCUCAAUCAACUCAUCGUCAGGAGUUUACUCCUGUUUUUUCAACAGCUCGCAGUCAAG”: the binding signal (log2 fold change) was -0.13.

For the sequence “GGUCACGUCUCAAUCAACUCUAUCUCCAGGGAAAACCCUGGCAUUCUCAACAGCUCGCAGUCAAG”, the binding signal (log2 fold change) came out at 0.0773.

With “GGUCACGUCUCAAUCAACUCUUUUCCAGGAGUUUACUCCUGUUUACUCAACAGCUCGCAGUCAAG”, the binding signal (log2 fold change) turned out to be 0.254.

As for “GGUCACGUCUCAAUCAACUCAUUUCCCAGGGAAACCCCUGGUAAUUUCAACAGCUCGCAGUCAAG”, the binding signal (log2 fold change) amounted to 0.219.

For “GGUCACGUCUCAAUCAACUCUUCGGAGGGGGGGAAAACCCCUUUACCCUCACAAUCAACAGCUCGCAGUCAAG”, the binding signal (log2 fold change) came to 0.00953.

Turning to “GGUCACGUCUCAAUCAACUCUUCCGAGGGGGGGAAAACCCCUUUACCCUCAAUCUCAACAGCUCGCAGUCAAG”, the binding signal (log2 fold change) was -0.107.

With “GGUCACGUCUCAAUCAACUCUAUAGAGGGGGGGAAAACCCCUUUGCCCUCACCAUCAACAGCUCGCAGUCAAG”, the binding signal (log2 fold change) is -0.034.

For the sequence “GGUCACGUCUCAAUCAACUCUUUUUCCAGGGAAAUCCCUGGCUAUCUCAACAGCUCGCAGUCAAG”, the binding signal (log2 fold change) is -0.0403.

Turning to “GGUCACGUCUCAAUCAACUCAUCCCCCAGGGAAAGCCCUGGCAAACUCAACAGCUCGCAGUCAAG”, the binding signal (log2 fold change) is -0.0744.

Consider “GGUCACGUCUCAAUCAACUCUUCGUCCAGGGAAAGCCCUGGUAUAUUCAACAGCUCGCAGUCAAG”, for which the binding signal (log2 fold change) is 0.144.

Regarding “GGUCACGUCUCAAUCAACUCUAUCUCAGGAGUUUUCUCCUGCAUUUUCAACAGCUCGCAGUCAAG”, the binding signal (log2 fold change) was -0.043.

In the case of “GGUCACGUCUCAAUCAACUCAUUUUCCAGGGAAAUCCCUGGUAUUUUCAACAGCUCGCAGUCAAG”, the binding signal (log2 fold change) is -0.0926.

Take “GGUCACGUCUCAAUCAACUCUUAAGAGGGGGGGAAAACCCCUUUGCCCUCCAUGUCAACAGCUCGCAGUCAAG”: the binding signal (log2 fold change) was -0.0374.

As to “GGUCACGUCUCAAUCAACUCAUUUUCCAGGGAAAUCCCUGGUAAUCUCAACAGCUCGCAGUCAAG”, the binding signal (log2 fold change) was 0.0667.

Turning to “GGUCACGUCUCAAUCAACUCAUUCCCAGGAGUUUCCUCCUGUUUAGUCAACAGCUCGCAGUCAAG”, the binding signal (log2 fold change) was found to be 0.0958.

In the case of “GGUCACGUCUCAAUCAACUCUAUCCCCAGGGAAAACCCUGGUUUUCUCAACAGCUCGCAGUCAAG”, the binding signal (log2 fold change) is -0.131.

Turning to “GGUCACGUCUCAAUCAACUCAUCCCCAGGAGUUUCCUCCUGUUAAGUCAACAGCUCGCAGUCAAG”, the binding signal (log2 fold change) was determined as 0.253.

“GGUCACGUCUCAAUCAACUCUUUUCCAGGAGUUUCCUCCUGCUUUCUCAACAGCUCGCAGUCAAG”: the binding signal (log2 fold change) was found to be 0.156.

For the sequence “GGUCACGUCUCAAUCAACUCAUUCCCCAGGGAAAACCCUGGCAAUCUCAACAGCUCGCAGUCAAG”, the binding signal (log2 fold change) was 0.166.

“GGUCACGUCUCAAUCAACUCUUCCUCCAGGGAAACCCCUGGCAUACUCAACAGCUCGCAGUCAAG”: the binding signal (log2 fold change) is -0.258.

For the sequence “GGUCACGUCUCAAUCAACUCCCUCGAGGGGGGGAAAACCCCUUUACCCUCAUCUUCAACAGCUCGCAGUCAAG”, the binding signal (log2 fold change) was -0.249.

As to “GGUCACGUCUCAAUCAACUCAUCUUCCAGGGAAACCCCUGGCUAAUUCAACAGCUCGCAGUCAAG”, the binding signal (log2 fold change) was 0.05.

Regarding “GGUCACGUCUCAAUCAACUCUUUUUCAGGAGUUUACUCCUGUAAUGUCAACAGCUCGCAGUCAAG”, the binding signal (log2 fold change) was 0.0179.

Consider “GGUCACGUCUCAAUCAACUCAUCUUCCAGGGAAACCCCUGGUAAAUUCAACAGCUCGCAGUCAAG”, for which the binding signal (log2 fold change) is -0.128.

For “GGUCACGUCUCAAUCAACUCUUUUUCCAGGGAAAGCCCUGGCUUUCUCAACAGCUCGCAGUCAAG”, the binding signal (log2 fold change) was -0.116.

Take “GGUCACGUCUCAAUCAACUCUAUUUCCAGGGAAAACCCUGGCAUUUUCAACAGCUCGCAGUCAAG”: the binding signal (log2 fold change) is -0.176.

For the sequence “GGUCACGUCUCAAUCAACUCUUCGCCAGGAGUUUCCUCCUGUAUUUUCAACAGCUCGCAGUCAAG”, the binding signal (log2 fold change) is 0.273.

On to “GGUCACGUCUCAAUCAACUCUUUCUCAGGAGUUUACUCCUGCAAUCUCAACAGCUCGCAGUCAAG”, for which the binding signal (log2 fold change) amounted to 0.143.

“GGUCACGUCUCAAUCAACUCUUCCCCCAGGGAAAACCCUGGUUAACUCAACAGCUCGCAGUCAAG”: the binding signal (log2 fold change) was -0.0758.

With “GGUCACGUCUCAAUCAACUCACACGAGGGGGGGAAAACCCCUUUACCCUCACUCUCAACAGCUCGCAGUCAAG”, the binding signal (log2 fold change) is 0.143.

As for “GGUCACGUCUCAAUCAACUCUUCGUCAGGAGUUUACUCCUGUAAUUUCAACAGCUCGCAGUCAAG”, the binding signal (log2 fold change) is -0.185.

On to “GGUCACGUCUCAAUCAACUCUAUCGAGGGGGGGAAAACCCCUUUACCCUCACAUUCAACAGCUCGCAGUCAAG”, for which the binding signal (log2 fold change) is -0.0793.

As to “GGUCACGUCUCAAUCAACUCUUUCCCAGGAGUUUACUCCUGUAAUUUCAACAGCUCGCAGUCAAG”, the binding signal (log2 fold change) amounted to 0.107.
